Source: PubChem BioAssay AID720708 (National Center for Advancing Translational Sciences (NCATS), 2013)
The campaign covered roughly 360,000 compounds. About 660 (0.18%) were called active. This list was built around the results that the source calls inconclusive (neither active nor inactive); the mix of calls is not that of the screen. The call rests on the fitted dose curve; in most records, active means well fitted inhibition curve with a large enough effect; inconclusive means small, poorly fitted or top-dose-only effect; inactive means no such curve, though single readings can be large or run the other way. No potency is given beside an inconclusive call; the fits are too rough.

What follows are compounds tested against Rap guanine nucleotide exchange factor 4 (Homo sapiens) (UniProt Q8WZA2) (assay: qHTS for Antagonist of cAMP-regulated guanine nucleotide exchange factor 2 (EPAC2): primary screen). Settings: EPAC2 GEF exchange of Rap1B-BODIPY-GDP, fluorescence; series mostly up to 114 µM.
UniProt Q8WZA2, sequence (Q8WZA2 whole entry, looked up): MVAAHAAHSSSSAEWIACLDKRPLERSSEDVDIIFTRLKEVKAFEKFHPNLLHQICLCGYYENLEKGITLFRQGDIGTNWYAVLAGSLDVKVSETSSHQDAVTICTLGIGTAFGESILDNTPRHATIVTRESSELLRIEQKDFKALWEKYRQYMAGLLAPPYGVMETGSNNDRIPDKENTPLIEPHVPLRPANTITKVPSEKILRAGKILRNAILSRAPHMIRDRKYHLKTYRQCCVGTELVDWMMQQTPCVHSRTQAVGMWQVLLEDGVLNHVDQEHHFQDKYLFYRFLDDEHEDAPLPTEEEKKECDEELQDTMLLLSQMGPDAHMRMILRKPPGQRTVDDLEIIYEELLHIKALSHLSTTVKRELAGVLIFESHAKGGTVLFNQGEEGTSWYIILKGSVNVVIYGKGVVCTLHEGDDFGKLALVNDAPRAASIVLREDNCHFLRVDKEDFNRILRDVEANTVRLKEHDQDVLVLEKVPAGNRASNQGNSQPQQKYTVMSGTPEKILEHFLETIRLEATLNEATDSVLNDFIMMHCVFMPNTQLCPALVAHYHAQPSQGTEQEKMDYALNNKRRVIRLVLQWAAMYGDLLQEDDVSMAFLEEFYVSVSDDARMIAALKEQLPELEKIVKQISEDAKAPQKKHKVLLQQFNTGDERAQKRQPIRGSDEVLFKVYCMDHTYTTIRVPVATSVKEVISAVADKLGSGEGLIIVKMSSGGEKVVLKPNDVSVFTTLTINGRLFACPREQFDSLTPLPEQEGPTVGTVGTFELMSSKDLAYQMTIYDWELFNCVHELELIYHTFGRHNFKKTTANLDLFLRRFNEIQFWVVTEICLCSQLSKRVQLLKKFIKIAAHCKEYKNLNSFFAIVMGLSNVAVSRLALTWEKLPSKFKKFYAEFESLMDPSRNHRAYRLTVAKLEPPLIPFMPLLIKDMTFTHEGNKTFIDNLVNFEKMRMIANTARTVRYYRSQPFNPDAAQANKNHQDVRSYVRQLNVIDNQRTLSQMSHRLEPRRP
Further: nearly all actives have a fitted effect of over 45% in size.
Potency means the concentration at half of the fitted maximal effect; tags describe the fitted curve by direction and shape.

SMILES	Potency
CNC(=S)N/N=C/c1c(C)cccc1Cl	inactive
O=C(CCC(=O)N1CCSc2ccccc21)NCc1cccc(Br)c1	inconclusive [inhibitor, full curve]
CCCN1C(=O)c2cc(C(=O)Nc3ccc(OC)cc3OC)ccc2C1Nc1ccc(OC)cc1OC (stereo not drawn)	inconclusive [inhibitor, full curve, poor fit]
Cc1ccc(S(=O)(=O)Nc2cccc3ncccc23)s1	inactive
COP(=O)(OC)C(Nc1cc(Cl)cc(Cl)c1)c1cccc(O)c1 (stereo not drawn)	inconclusive [inhibitor, full curve]
NC(=S)n1[nH]c(-c2ccc([N+](=O)[O-])cc2)c(N=Nc2cccc([N+](=O)[O-])c2)c1=O	inconclusive [inhibitor, partial curve]
Cc1cc(C)nc(SCNC(=O)c2ccc(Cl)cc2)n1	inactive
Cc1cc(NC(=O)NCc2ccccc2)c(=O)n(Cc2ccc(F)cc2)c1	inconclusive [inhibitor, partial curve]
CCN(CC)S(=O)(=O)c1ccc(C(=O)NCC(=O)NCc2ccc3c(c2)OCO3)cc1	inactive
O=C(CN1C(=O)COc2ccc(S(=O)(=O)N3CCCC3)cc21)Nc1cccc(F)c1	inactive
CCCCc1nn(-c2cc(Cl)ccc2OC)c2c1C(=O)CC(C)(C)C2	inconclusive [inhibitor, partial curve]
CCCc1nc(SC2CCCC2)c2c(=O)n(C)c(=O)n(C)c2n1	inconclusive [inhibitor, full curve]
CCc1ccc(NC(=O)COC(=O)c2ccc(Cl)c(S(=O)(=O)N3CCCCCC3)c2)cc1	inconclusive [inhibitor, partial curve]
Cc1ccc2c(c1)c(=O)c1c3n2CCN(C(=O)CCl)C3CC1 (stereo not drawn)	inactive
CC(C)CNC(=O)c1cccc2c(-c3ccc(F)c(F)c3)coc12	inconclusive [inhibitor, single point]
Cc1ccc(S(=O)(=O)N(CC(=O)NCC2CCCO2)C2CCCCC2)cc1 (stereo not drawn)	inconclusive [inhibitor, partial curve, poor fit]
COc1ccc(C2CC(=O)C3=C(C2)NC(C)=C(C#N)C3c2ccc(N(C)C)cc2)cc1 (stereo not drawn)	inconclusive [inhibitor, single point]
O=C(c1ccccc1)c1ccc(OCC(O)CNCc2ccc(Cl)cc2)cc1 (stereo not drawn)	inactive
Cc1cc(Br)ccc1NC(=O)C1CCN(C(=O)c2ccco2)CC1	inactive
CCN1CCN(CCNC(=O)c2ccc(/C=C3\Sc4ccccc4N(Cc4ccccc4F)C3=O)cc2)CC1	inconclusive [inhibitor, partial curve]
c1csc(CCNc2ncnc3sc4c(c23)CCC4)c1	inconclusive [inhibitor, full curve]
COc1cccc2c1OCC/C2=N\NC(=O)C(C)Oc1ccc([N+](=O)[O-])cc1 (stereo not drawn)	inconclusive [inhibitor, single point]
Cc1cccc(NC2=C(NCCO)C(=O)c3ccccc3C2=O)c1	inactive

SMILES	Potency
Cc1cccc(NC(=O)CN2C(=O)S/C(=C\c3ccc(O)c([N+](=O)[O-])c3)C2=O)c1	inactive
Nc1ncnc2c1ncn2[C@@H]1O[C@H](C(=O)N2CCN(c3ccc(Cl)cn3)CC2)[C@@H](O)[C@H]1O	inactive
Cn1c(O)c(/C=C2\C=Nc3ccccc32)sc1=Nc1ccc(C(=O)O)cc1	inactive
CCOC(=O)C1=C(O)/C(=C/c2ccc(OCC(=O)O)c(OCC)c2)SC1=Nc1ccc(OC)cc1	inconclusive [inhibitor, partial curve]
Cc1ccc(C(=O)NN2C(=O)/C(=C/c3cn(C)c4ccccc34)SC2=S)cc1	inactive
C(=C\c1ccccc1)/C=N/Nc1ccc2nncn2n1	inactive
Cc1ccc(C)c(N2CCN(C(=O)c3cccn4c(=O)c5sccc5nc34)CC2)c1	inconclusive [inhibitor, full curve]
O=C(NC(=S)NC12CC3CC(CC(C3)C1)C2)c1ccc(F)cc1	inactive
COc1ccc(Nc2cc(C)c3ccccc3n2)cc1	inactive
CCC1(c2ccc(Cl)cc2)NC(=O)N(Cc2ccc(C(=O)OC)cc2)C1=O (stereo not drawn)	inconclusive [inhibitor, partial curve]
Cc1cccc(S(=O)(=O)N2C[C@@H](O)COC[C@@H]3O[C@H](CC(=O)NCCCN4CCOCC4)CC[C@H]32)c1	inactive
Cc1ccc(F)c(S(=O)(=O)NC(=O)C2(C)CCN2C(=O)C2(c3ccc(Cl)cc3)CC2)c1 (stereo not drawn)	inconclusive [inhibitor, single point]
Cc1ccc(-c2cc(NC=O)c3ncc(-c4cccc(C(=O)N(C)C)c4)n3c2)cc1	inconclusive [inhibitor, partial curve]
O=C(O)CCc1ccc(-c2ccccc2)n1CC(=O)Nc1cccc(C(F)(F)F)c1	inconclusive [inhibitor, partial curve]
COc1ccc([C@@H]2[C@@H]3C(=O)N(C(C)(C)C)C(=O)[C@@H]3[C@]3(Cc4ccccc4)C(=O)N(c4cccc(Br)c4)C(=O)N23)cc1	inconclusive [inhibitor, single point]
C[C@H]1CN([C@@H](C)CO)C(=O)c2cc(-c3cccnc3)cnc2O[C@H]1CN(C)Cc1ccc(Oc2ccccc2)cc1	inactive
COC(=O)c1cc(Br)ccc1N(Cc1cc(OC)cc(OC)c1)S(C)(=O)=O	inconclusive [inhibitor, partial curve]
Cc1ccc(NC2c3ncccc3C(=O)N2c2ccccc2C)cc1C (stereo not drawn)	inactive
CCOc1ccc(S(=O)(=O)N2CCCCCC2)c2ccccc12	inconclusive [inhibitor, full curve]
Cc1cccc(N(CC(=O)NC(C)(C)C)C(=O)CS(=O)CC(=O)Nc2ccc(F)cc2)c1 (stereo not drawn)	inactive
CCN(Cc1ccccc1)Cc1nnnn1Cc1ccccc1	inconclusive [inhibitor, full curve, poor fit]
O=C1C(Cl)=C(Oc2ccccc2)C(=O)c2ccccc21	inconclusive [inhibitor, single point]
COc1ccc(C(=O)c2ccc(Br)cc2)c(OC)c1OC	inconclusive [inhibitor, partial curve]

SMILES	Potency
COc1ccc(-c2csc(C(C)(O)c3cccc(F)c3)n2)cn1 (stereo not drawn)	inactive
CCSc1nc2ccccc2c(=O)n1CCc1ccc(OC)c(OC)c1	inconclusive [inhibitor, full curve, poor fit]
Cc1ccc(-c2nc(P(=O)(c3ccccc3)c3ccccc3)c(N3CCOCC3)o2)cc1	inconclusive [inhibitor, partial curve]
CC(C)(C)OC(=O)C(Oc1ccccc1[N+](=O)[O-])C(=O)OC(C)(C)C	inconclusive [inhibitor, partial curve]
NC(=O)c1cccnc1Nc1cccc(F)c1	inconclusive [inhibitor, single point]
CCCCNc1c(-c2ccc(OC)c(Sc3ccc(OC)cc3)c2)nc2ccccn12	inconclusive [inhibitor, full curve]
CC1=NN(C(C#N)c2ccccc2C)C(c2ccccc2)C1 (stereo not drawn)	inconclusive [inhibitor, partial curve]
Cc1ccc(S(=O)(=O)Nc2ccc3c(c2)OCCO3)cc1C	inconclusive [inhibitor, partial curve]
CCCc1nc2ccc(C)cn2c1Cc1ccccc1C(F)(F)F	inconclusive [inhibitor, partial curve]
Cc1ccc(C(=O)N2CCN(c3ccc(NC(=S)NC(=O)Cc4ccccc4)cc3)CC2)cc1	inactive
O=C1C(Cc2ccccc2)Nc2ncnc(N3CCOCC3)c2N1Cc1ccccc1 (stereo not drawn)	inconclusive [inhibitor, single point]
Nc1nc(-c2cccs2)c(CC(=O)O)s1	inactive
Fc1ccc2cnc(-c3ccccc3)c(-c3cc(C(F)(F)F)cc(C(F)(F)F)c3)c2c1	inconclusive [inhibitor, full curve]
Cc1ccc(S(=O)(=O)N(Cc2ccc(Cl)cc2)c2ccccc2C(=O)NCc2ccco2)cc1	inconclusive [inhibitor, full curve]
CC1(Cc2ccccc2OC(F)(F)F)C(=O)Nc2cc(-c3ccccc3Cl)ccc21 (stereo not drawn)	inconclusive [inhibitor, partial curve]
C/C(=N\NC(=S)NCc1ccccc1)c1ccc(C(C)(C)C)cc1	inconclusive [inhibitor, partial curve]
Cc1ccc(OCC(=O)N2CCc3ccccc3C2)c(Br)c1	inconclusive [inhibitor, partial curve]
CC(C)Oc1ccc(CN2CCC2(C)C(=O)Nc2cnc3ccccc3c2)cc1 (stereo not drawn)	inactive
Cc1csc(=O)n1CCC(=O)OCC(=O)Nc1ccc(S(N)(=O)=O)cc1	inactive
Cc1ccc([C@H]2C(C(=O)O)=CC[C@@H](c3cccc(C)c3)N2S(=O)(=O)c2ccc(C)cc2)cc1	inconclusive [inhibitor, single point]
O=C(NN1C(=O)/C(=C/c2ccc(O)c(O)c2)SC1=S)c1ccccc1	inactive
COc1cccc(C(C)(O)c2nc(-c3ccccc3)cs2)c1 (stereo not drawn)	inconclusive [inhibitor, partial curve, poor fit]
